Reference: the supplement of paper PMC8728848
Some of the results follow.

Key:
Assay in all cases: glycan array binding signal (z-score within array); higher = stronger binding
Conditions in all cases: glycan notation: IUPAC condensed, linker removed
Fuc(a1-2)Gal = target: Fuc(a1-2)Gal
Summary of the method: (§1)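 The binding signal is a Z-score computed within each array. Data were drawn from 3228 arrays in the Consortium for Functional Glycomics database, restricted to those with a known protein sequence. Scores were averaged over arrays of the same protein sequence at different concentrations or buffers, and over linkers, and negative values can be taken as non-binding.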

Fuc(a1-2)Gal(b1-3)GalNAc = target: Fuc(a1-2)Gal(b1-3)GalNAc
Summary of the method: as §1

[1] = target: Fuc(a1-2)Gal(b1-3)GalNAc(a1-3)[Fuc(a1-2)]Gal(b1-4)Glc
Summary of the method: as §1

[2] = target: Fuc(a1-2)Gal(b1-3)GalNAc(a1-3)[Fuc(a1-2)]Gal(b1-4)GlcNAc
Summary of the method: as §1

[3] = target: Fuc(a1-2)Gal(b1-3)GalNAc(b1-3)Gal
Summary of the method: as §1

[4] = target: Fuc(a1-2)Gal(b1-3)GalNAc(b1-3)Gal(a1-4)Gal(b1-4)Glc
Summary of the method: as §1

[5] = target: Fuc(a1-2)Gal(b1-3)GalNAc(b1-4)[Neu5Ac(a2-3)]Gal(b1-4)Glc
Summary of the method: as §1

Fuc(a1-2)Gal(b1-3)GlcNAc = target: Fuc(a1-2)Gal(b1-3)GlcNAc
Summary of the method: as §1

[6] = target: Fuc(a1-2)Gal(b1-3)GlcNAc(b1-2)Man(a1-3)[Fuc(a1-2)Gal(b1-3)GlcNAc(b1-2)Man(a1-6)]Man(b1-4)GlcNAc(b1-4)GlcNAc
Summary of the method: as §1

[7] = target: Fuc(a1-2)Gal(b1-3)GlcNAc(b1-2)Man(a1-3)[Fuc(a1-2)Gal(b1-3)GlcNAc(b1-2)Man(a1-6)]Man(b1-4)GlcNAc(b1-4)[Fuc(a1-6)]GlcNAc
Summary of the method: as §1

[8] = target: Fuc(a1-2)Gal(b1-3)GlcNAc(b1-3)Gal(b1-4)Glc
Summary of the method: as §1

[9] = target: Fuc(a1-2)Gal(b1-3)GlcNAc(b1-3)GalNAc
Summary of the method: as §1

[10] = target: Fuc(a1-2)Gal(b1-3)GlcNAc(b1-3)[Fuc(a1-3)[Gal(b1-4)]GlcNAc(b1-6)]Gal(b1-4)Glc
Summary of the method: as §1

[11] = target: Fuc(a1-2)Gal(b1-3)GlcNAc(b1-3)[Gal(b1-4)GlcNAc(b1-6)]Gal(b1-4)Glc
Summary of the method: as §1

[12] = target: Fuc(a1-2)Gal(b1-3)GlcNAc(b1-3)[Neu5Ac(a2-6)Gal(b1-4)GlcNAc(b1-6)]Gal(b1-4)Glc
Summary of the method: as §1

[13] = target: Fuc(a1-2)Gal(b1-3)[Fuc(a1-4)]GlcNAc
Summary of the method: as §1

[14] = target: Fuc(a1-2)Gal(b1-3)[Fuc(a1-4)]GlcNAc(b1-2)Man(a1-3)[Fuc(a1-2)Gal(b1-3)[Fuc(a1-4)]GlcNAc(b1-2)Man(a1-6)]Man(b1-4)GlcNAc(b1-4)GlcNAc
Summary of the method: as §1

[15] = target: Fuc(a1-2)Gal(b1-3)[Fuc(a1-4)]GlcNAc(b1-3)[Fuc(a1-3)[Gal(b1-4)]GlcNAc(b1-6)]Gal(b1-4)Glc
Summary of the method: as §1

[16] = target: Fuc(a1-2)Gal(b1-3)[Fuc(a1-4)]GlcNAc(b1-3)[Gal(b1-4)GlcNAc(b1-6)]Gal(b1-4)Glc
Summary of the method: as §1

Fuc(a1-2)Gal(b1-4)Glc = target: Fuc(a1-2)Gal(b1-4)Glc
Summary of the method: as §1

Fuc(a1-2)Gal(b1-4)Glc6S = target: Fuc(a1-2)Gal(b1-4)Glc6S
Summary of the method: as §1

Fuc(a1-2)Gal(b1-4)GlcNAc = target: Fuc(a1-2)Gal(b1-4)GlcNAc
Summary of the method: as §1

[17] = target: Fuc(a1-2)Gal(b1-4)GlcNAc(b1-2)Man(a1-3)[Fuc(a1-2)Gal(b1-4)GlcNAc(b1-2)Man(a1-6)]Man(b1-4)GlcNAc(b1-4)GlcNAc
Summary of the method: as §1

[18] = target: Fuc(a1-2)Gal(b1-4)GlcNAc(b1-2)Man(a1-3)[Fuc(a1-2)Gal(b1-4)GlcNAc(b1-2)Man(a1-6)]Man(b1-4)GlcNAc(b1-4)[Fuc(a1-6)]GlcNAc
Summary of the method: as §1

[19] = target: Fuc(a1-2)Gal(b1-4)GlcNAc(b1-2)[Fuc(a1-2)Gal(b1-4)GlcNAc(b1-4)]Man(a1-3)[Fuc(a1-2)Gal(b1-4)GlcNAc(b1-2)Man(a1-6)]Man(b1-4)GlcNAc(b1-4)GlcNAc
Summary of the method: as §1

[20] = target: Fuc(a1-2)Gal(b1-4)GlcNAc(b1-3)Gal(b1-4)GlcNAc
Summary of the method: as §1

[21] = target: Fuc(a1-2)Gal(b1-4)GlcNAc(b1-3)Gal(b1-4)GlcNAc(b1-3)Gal(b1-4)GlcNAc
Summary of the method: as §1

[22] = target: Fuc(a1-2)Gal(b1-4)GlcNAc(b1-3)GalNAc
Summary of the method: as §1

[23] = target: Fuc(a1-2)Gal(b1-4)GlcNAc(b1-3)[Fuc(a1-2)Gal(b1-4)GlcNAc(b1-6)]GalNAc
Summary of the method: as §1

[24] = target: Fuc(a1-2)Gal(b1-4)GlcNAc6S
Summary of the method: as §1

[25] = target: Fuc(a1-2)Gal(b1-4)[Fuc(a1-3)]GlcNAc
Summary of the method: as §1

[26] = target: Fuc(a1-2)Gal(b1-4)[Fuc(a1-3)]GlcNAc(b1-2)Man(a1-3)[Fuc(a1-2)Gal(b1-4)[Fuc(a1-3)]GlcNAc(b1-2)Man(a1-6)]Man(b1-4)GlcNAc(b1-4)GlcNAc
Summary of the method: as §1

[27] = target: Fuc(a1-2)Gal(b1-4)[Fuc(a1-3)]GlcNAc(b1-2)[Fuc(a1-2)Gal(b1-4)[Fuc(a1-3)]GlcNAc(b1-4)]Man(a1-3)[Fuc(a1-2)Gal(b1-4)[Fuc(a1-3)]GlcNAc(b1-2)Man(a1-6)]Man(b1-4)GlcNAc(b1-4)GlcNAc
Summary of the method: as §1

[28] = target: Fuc(a1-2)Gal(b1-4)[Fuc(a1-3)]GlcNAc(b1-3)Gal(b1-4)[Fuc(a1-3)]GlcNAc
Summary of the method: as §1

[29] = target: Fuc(a1-2)Gal(b1-4)[Fuc(a1-3)]GlcNAc(b1-3)Gal(b1-4)[Fuc(a1-3)]GlcNAc(b1-3)Gal(b1-4)[Fuc(a1-3)]GlcNAc
Summary of the method: as §1

[30] = target: Fuc(a1-2)Gal(b1-4)[Fuc(a1-3)]GlcNAc(b1-3)GalNAc
Summary of the method: as §1

Fuc(a1-2)Gal6S(b1-4)Glc = target: Fuc(a1-2)Gal6S(b1-4)Glc
Summary of the method: as §1

[31] = target: Fuc(a1-2)Gal6S(b1-4)Glc6S
Summary of the method: as §1

[32] = target: Fuc(a1-2)Gal6S(b1-4)GlcNAc
Summary of the method: as §1

Fuc(a1-2)[Gal(a1-3)]Gal = target: Fuc(a1-2)[Gal(a1-3)]Gal
Summary of the method: as §1

[33] = target: Fuc(a1-2)[Gal(a1-3)]Gal(b1-3)GalNAc
Summary of the method: as §1

[34] = target: Fuc(a1-2)[Gal(a1-3)]Gal(b1-3)GlcNAc
Summary of the method: as §1

[35] = target: Fuc(a1-2)[Gal(a1-3)]Gal(b1-3)GlcNAc(b1-2)Man(a1-3)[Fuc(a1-2)[Gal(a1-3)]Gal(b1-3)GlcNAc(b1-2)Man(a1-6)]Man(b1-4)GlcNAc(b1-4)GlcNAc
Summary of the method: as §1

[36] = target: Fuc(a1-2)[Gal(a1-3)]Gal(b1-3)GlcNAc(b1-2)Man(a1-3)[Fuc(a1-2)[Gal(a1-3)]Gal(b1-3)GlcNAc(b1-2)Man(a1-6)]Man(b1-4)GlcNAc(b1-4)[Fuc(a1-6)]GlcNAc
Summary of the method: as §1

[37] = target: Fuc(a1-2)[Gal(a1-3)]Gal(b1-3)GlcNAc(b1-3)GalNAc
Summary of the method: as §1

B1: CVN (Nostoc ellipsosporum), P81180 (protein)
chain: LGKFSQTCYNSAIQGSVLTSTCERTNGGYNTSSIDLNSVIENVDGSLKWQPSNFIETCRNTQLAGSSELAAECKTRAQQFVSTKINLDDHIANIDGTLKYE
glycan array binding signal (z-score) (Fuc(a1-2)Gal): -0.305
glycan array binding signal (z-score) (Fuc(a1-2)Gal(b1-3)GalNAc): -0.301
glycan array binding signal (z-score) [1]: -0.181
glycan array binding signal (z-score) [2]: -0.307
glycan array binding signal (z-score) [3]: -0.293
glycan array binding signal (z-score) [4]: -0.304
glycan array binding signal (z-score) [5]: -0.232
glycan array binding signal (z-score) (Fuc(a1-2)Gal(b1-3)GlcNAc): -0.302
glycan array binding signal (z-score) [6]: 1.62
glycan array binding signal (z-score) [7]: 1.94
glycan array binding signal (z-score) [8]: 0.846
glycan array binding signal (z-score) [9]: -0.163
glycan array binding signal (z-score) [10]: -0.199
glycan array binding signal (z-score) [11]: -0.299
glycan array binding signal (z-score) [12]: 0.148
glycan array binding signal (z-score) [13]: -0.305
glycan array binding signal (z-score) [14]: 0.585
glycan array binding signal (z-score) [15]: -0.24
glycan array binding signal (z-score) [16]: 1.4
glycan array binding signal (z-score) (Fuc(a1-2)Gal(b1-4)Glc): -0.305
glycan array binding signal (z-score) (Fuc(a1-2)Gal(b1-4)Glc6S): -0.303
glycan array binding signal (z-score) (Fuc(a1-2)Gal(b1-4)GlcNAc): -0.305
glycan array binding signal (z-score) [17]: 0.822
glycan array binding signal (z-score) [18]: 2.29
glycan array binding signal (z-score) [19]: 1.05
glycan array binding signal (z-score) [20]: -0.305
glycan array binding signal (z-score) [21]: -0.208
glycan array binding signal (z-score) [22]: -0.037
glycan array binding signal (z-score) [23]: 0.54
glycan array binding signal (z-score) [24]: -0.305
glycan array binding signal (z-score) [25]: -0.297
glycan array binding signal (z-score) [26]: 0.311
glycan array binding signal (z-score) [27]: 0.557
glycan array binding signal (z-score) [28]: -0.227
glycan array binding signal (z-score) [29]: 0.402
glycan array binding signal (z-score) [30]: 1.02
glycan array binding signal (z-score) (Fuc(a1-2)Gal6S(b1-4)Glc): -0.295
glycan array binding signal (z-score) [31]: -0.064
glycan array binding signal (z-score) [32]: -0.3
glycan array binding signal (z-score) (Fuc(a1-2)[Gal(a1-3)]Gal): -0.3
glycan array binding signal (z-score) [33]: -0.304
glycan array binding signal (z-score) [34]: -0.304
glycan array binding signal (z-score) [35]: 0.868
glycan array binding signal (z-score) [36]: 2.17
glycan array binding signal (z-score) [37]: -0.163
